In the supplement of paper PMC9433436:
± gives the standard deviation of the averaged measurements. The full ranking holds about 4,100 sequences; the median of “relative kcat/Km (krel) vs genomic leader AAAGAU” is about 1.7, and the highest 2% start at about 6.5. This is a selection; strong and weak results do not stand in their true shares.

Target: T1, E. coli RNase P holoenzyme (M1 P RNA + rnpA protein) (UniProt P0A7Y8)
T1 sequence: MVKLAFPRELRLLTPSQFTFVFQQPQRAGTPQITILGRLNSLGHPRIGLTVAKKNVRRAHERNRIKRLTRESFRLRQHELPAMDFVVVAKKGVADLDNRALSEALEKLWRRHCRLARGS
Experiment: relative kcat/Km (krel) vs genomic leader AAAGAU (relative (reference leader = 1)); higher = faster RNase P cleavage
Experimental: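 HTS-Kin: a pool of ptRNA-Met (21C construct) with all 4096 combinations of 5' leader nucleotides N(-6) to N(-1) was processed in vitro by E. coli RNase P (P RNA + rnpA/C5 protein) under multiple-turnover conditions at 37 C, pH 8, 17.5 mM MgCl2. Residual substrate was Illumina-sequenced at several fractions reacted, and relative kcat/Km (krel) was computed by internal competition kinetics, calibrated to the genomic leader (AAAGAU = 1). The listed hexamer is the varied N(-6)..N(-1) leader (DNA letters), and it sits between a fixed 5' stem-loop flank (GCAUGCACGAAAGUGCGUGCUAUGAA) and the mature tRNA-Met starting GGCUACGUAGCUCAGUUGG. Two technical replicates are averaged.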

[1] = fraction of substrate reacted: ~9-10% (9.79% repeat 1, 9.1% repeat 2)
[2] = fraction of substrate reacted: ~13-16% (15.68% repeat 1, 13.17% repeat 2)
[3] = fraction of substrate reacted: ~26-29% (28.66% repeat 1, 26.4% repeat 2)

| Sequence | relative kcat/Km [1] | relative kcat/Km [2] | relative kcat/Km [3] |
| --- | --- | --- | --- |
| TCGACA | 1.25 ± 0.27 | 1.39 ± 0.21 | 1.62 ± 0.039 |
| ATTAAA | 2.47 ± 0.74 | 3.1 ± 0.085 | 4.44 ± 1.6 |
| GGTATG | – | 0.21 ± 0.0069 | 1.63 ± 0.33 |
| TTCAAT | 4.1 ± 1.6 | 5.53 ± 0.71 | – |
| CGTCTC | 3.46 ± 1.4 | 3.17 ± 0.15 | 4.08 ± 1.2 |
| CCCGCC | 2.78 ± 0.39 | 4.24 ± 2 | 4.94 ± 1.9 |
| GATAGA | 2.54 ± 0.52 | 3.28 ± 1.1 | 4.68 ± 2.2 |
| TCCCGG | 1.09 ± 0.43 | 0.823 ± 0.2 | 1.31 ± 0.12 |
| CCGGCA | – | 0.373 ± 0.043 | – |
| CGTTTC | 2.71 ± 0.41 | 3.42 ± 0.7 | 4.39 ± 1.7 |
| CACCGT | – | – | 1.45 ± 0.87 |
| CCCTAC | 4.32 ± 1.6 | 5.08 ± 2.3 | 7.32 ± 3.6 |
| ATATTT | 2.52 ± 0.84 | 3.27 ± 0.55 | 4.42 ± 1.7 |
| TTGAAA | 1.85 ± 0.91 | 2.75 ± 0.27 | 4.27 ± 1.5 |
| TGTAAG | 1.42 ± 0.7 | 1.55 ± 0.3 | 3.25 ± 1 |
| ATACCG | 1.17 ± 0.45 | 0.388 ± 0.054 | 0.985 ± 0.26 |
| CCAGCC | 2.19 ± 0.25 | 1.21 ± 0.83 | 1.98 ± 0.67 |
| AGGCCC | – | 0.946 ± 0.56 | 0.674 ± 0.24 |
| GTCCCG | 1.8 ± 0.86 | 1.62 ± 0.64 | 3.16 ± 1.1 |
| ACTGCT | 1.54 ± 0.5 | 1.16 ± 0.11 | 0.708 ± 0.3 |
| CGATTC | 2.31 ± 0.59 | 2.7 ± 0.093 | 3.23 ± 0.51 |
| GAATTT | 2.52 ± 0.75 | 2.52 ± 0.61 | 3.89 ± 1.9 |

| Sequence | relative kcat/Km [1] | relative kcat/Km [2] | relative kcat/Km [3] |
| --- | --- | --- | --- |
| AAGGTC | – | – | 1.41 ± 1.2 |
| GTTCGA | 2.34 ± 0.56 | 3.28 ± 0.97 | 5.18 ± 2.2 |
| TACCAT | 3.78 ± 1.5 | 5.08 ± 1.6 | – |
| AATGGG | 0.672 ± 0.43 | – | – |
| AACAGC | 2.64 ± 0.14 | 4 ± 0.94 | 4.83 ± 1.9 |
| TGCGTA | 1.11 ± 0.33 | 1.31 ± 0.36 | 1.34 ± 0.86 |
| CAGCCG | – | – | 0.58 ± 0.46 |
| TATTGA | 3.87 ± 0.33 | 4.42 ± 1.1 | 6.93 ± 3.1 |
| CCGGTT | – | 1.23 ± 0.56 | 0.722 ± 0.15 |
| GCCGGA | 0.199 ± 0.19 | – | 0.499 ± 0.11 |
| CTGTGA | 1.54 ± 0.4 | 1.69 ± 0.021 | 2.49 ± 0.65 |
| CCACAT | 1.66 ± 0.71 | 2.28 ± 0.88 | 3.62 ± 1.1 |
| ACCGAT | 1.71 ± 0.53 | 1.62 ± 0.77 | 2.16 ± 0.95 |
| CTACAT | 3.38 ± 1.2 | 3.92 ± 0.91 | 5.19 ± 2 |
| ATAGAC | 2.35 ± 0.59 | 3.04 ± 0.16 | 3.83 ± 1.4 |
| GTGACC | 1.12 ± 0.28 | 1.17 ± 0.58 | 1.6 ± 0.33 |
| CTATAG | 2.47 ± 1.2 | 1.823 ± 0.012 | 3.4 ± 0.44 |
| CTTACT | 1.64 ± 0.29 | 1.54 ± 0.47 | 2.71 ± 0.57 |
| ATTGAT | 0.788 ± 0.097 | 0.733 ± 0.17 | 1.01 ± 0.033 |
| TTTCCT | 2.84 ± 0.75 | 2.73 ± 0.23 | 3.67 ± 1.3 |
| ACCACC | 2.49 ± 0.91 | 1.27 ± 0.33 | 3.18 ± 0.88 |
| CGCCCC | 2.78 ± 1.1 | 2.38 ± 0.093 | 3.47 ± 1 |

| Sequence | relative kcat/Km [1] | relative kcat/Km [2] | relative kcat/Km [3] |
| --- | --- | --- | --- |
| TAAATC | 1.49 ± 1 | 1.45 ± 0.52 | 2.15 ± 0.9 |
| CCAAAC | 2.63 ± 1.5 | 1.63 ± 0.81 | 2.42 ± 0.85 |
| TAGTTA | 2.3 ± 1.2 | 2.7 ± 0.067 | 3.74 ± 1.3 |
| TTGCAA | 1.54 ± 0.37 | 2.13 ± 0.72 | 2.92 ± 0.97 |
| GCGGTA | 1.66 ± 1.3 | – | 1.51 ± 1 |
| AACGCG | 1.32 ± 0.5 | 0.857 ± 0.52 | 1.47 ± 0.078 |
| CTTATC | 2.17 ± 0.3 | 2.23 ± 0.22 | 3.15 ± 1.2 |
| ATAACT | 1.28 ± 0.37 | 1.21 ± 0.2 | 1.79 ± 0.75 |
| GCCAGG | 0.252 ± 0.12 | – | 1.05 ± 0.036 |
| TAATAA | 3.59 ± 2 | 4.41 ± 0.57 | 5.5 ± 2.2 |
| ACGACG | 1.28 ± 0.76 | – | 1.41 ± 0.34 |
| TTATTT | 2.98 ± 1.5 | 3.82 ± 0.087 | 5.29 ± 2.3 |
| CAGGGT | – | – | 1.38 ± 0.19 |
| GGTAAA | 1.91 ± 1.8 | 1.55 ± 0.29 | 2.14 ± 0.88 |
| GAAGAC | 2.98 ± 1.4 | 2.1 ± 0.083 | 3.1 ± 0.58 |
| CGCCGA | 2.62 ± 0.76 | 3.85 ± 0.96 | 5.55 ± 2 |
| AGTTAT | 2.78 ± 0.19 | 4.36 ± 0.82 | 7 ± 3.2 |
| TATCCT | 2.16 ± 0.37 | 2.81 ± 0.74 | 3.59 ± 1.8 |
| TTTTTT | 3.31 ± 1.9 | 3.41 ± 0.27 | 4.9 ± 1.7 |
| GAGAGG | – | – | 0.557 ± 0.14 |
